The whole screen tested about 260,000 compounds, of which about 890 (0.34%) were called active. The inconclusive results got no clear call from the source; some entries with a clear call stand among them for comparison. Calls come from the whole dose curve; as a rule, active = well fitted activation curve with a large enough effect; inconclusive = small, poorly fitted or top-dose-only effect; inactive = no such curve, though single readings can be large or run the other way. No potency is given beside an inconclusive call; the fits are too rough.
These compounds were tested against Pyruvate kinase PKM (Homo sapiens) (UniProt P14618) (assay: qHTS Assay for Activators of Human Muscle isoform 2 Pyruvate Kinase). Details: purified PKM2, Kinase-Glo ATP luminescence; Potency: activation; activation: at 57.5 µM (top of the series), 0% is enzyme alone, no compound.
Chain of UniProt P14618 (P14618 whole entry, looked up, canonical isoform): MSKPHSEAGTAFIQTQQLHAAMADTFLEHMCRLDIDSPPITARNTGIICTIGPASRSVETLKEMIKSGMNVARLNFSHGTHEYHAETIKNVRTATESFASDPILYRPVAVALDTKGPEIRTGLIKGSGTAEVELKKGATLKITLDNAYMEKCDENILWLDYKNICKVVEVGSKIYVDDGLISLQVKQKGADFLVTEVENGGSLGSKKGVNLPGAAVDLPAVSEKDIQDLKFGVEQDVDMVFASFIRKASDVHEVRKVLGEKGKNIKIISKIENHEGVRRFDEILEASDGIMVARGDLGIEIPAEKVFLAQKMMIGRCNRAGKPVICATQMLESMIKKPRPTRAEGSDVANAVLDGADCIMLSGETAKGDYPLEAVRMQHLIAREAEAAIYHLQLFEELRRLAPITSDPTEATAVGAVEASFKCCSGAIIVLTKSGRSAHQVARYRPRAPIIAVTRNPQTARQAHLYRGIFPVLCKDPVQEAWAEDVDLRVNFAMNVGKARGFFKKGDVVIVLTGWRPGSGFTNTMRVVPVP
Procedure, shortened: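 Purified hPK-M2 (>95%) run at intermediate activity with 0.1 mM ADP and 0.5 mM PEP in 50 mM imidazole pH 7.2, KCl, MgCl2; 1 h room temperature. ATP formed read by Kinase-Glo luminescence; normalized to uninhibited and no-enzyme controls.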
Note: nearly all actives have a fitted effect of over 55% in size.
Potency is the fitted concentration of half-maximal effect; tags give direction and shape of the fitted curve.

Row | Compound | Potency
1 | Cc1cc2cc(CNC(=O)c3ccc(C)c([N+](=O)[O-])c3)ccc2[nH]1 | inconclusive [rising, partial curve]
2 | COc1ccc(COCCN2CCN(S(=O)(=O)c3ccc(C)cc3)CCC2=O)cc1 | inconclusive [rising, single point]
3 | Cc1cccc(NC(=O)COc2ccc(/C=C\c3[nH]c(=O)[nH]c(=O)c3[N+](=O)[O-])cc2)c1 | inconclusive [rising, single point]
4 | CC1=NN(c2ccccc2)C(=O)C1C(=O)c1ccc(Cl)cc1 (stereo not given) | inactive
5 | Clc1ccccc1CSc1nnc(-c2cccnc2)n1Cc1ccco1 | inconclusive [rising, full curve, poor fit]
6 | O=C(CCCc1nc(-c2ccccc2)no1)NCc1cccnc1 | inactive
7 | COc1ccccc1NC(=O)CN(c1ccc([N+](=O)[O-])cc1)S(=O)(=O)c1ccccc1 | active: 10 µM
8 | NC(=O)c1ccsc1NC(=O)CCS(=O)(=O)c1ccccc1 | inactive
9 | O=C(O)c1cc(N2CCOCC2)nc2ccccc12 | inconclusive [rising, full curve]
10 | Cc1cc2c(cc1S(=O)(=O)CCC(=O)N(C)C1CCCCC1)OCC(=O)N2 | inconclusive [rising, single point]
11 | O=C(CSc1ncnc2nc[nH]c12)Nc1ccc(Br)cc1Cl | inconclusive [rising, single point]
12 | CSc1ccc(C2c3[nH]c4ccccc4c3CCN2C(=O)c2cc(C)n(C)n2)cc1 (stereo not given) | inconclusive [rising, single point]
13 | CN1c2ccccc2N(C)C1(C)c1cccc2ccccc12 | inactive
14 | S=c1[nH]nc(Cc2sc(-c3ccccc3)nc2-c2ccccc2)o1 | inactive
15 | CCOC(=O)c1ccc(-c2ccc(/C=N/NC(=O)c3cncc(Br)c3)o2)cc1 | inactive
16 | Cc1cccc2cc(CN(Cc3ccco3)C(=O)c3cccs3)c(=O)[nH]c12 | inconclusive [rising, partial curve]
17 | O=C(CCC(=O)Nc1ccccc1)N/N=C/c1ccco1 | inactive
18 | COc1ccc(NC(=O)CSc2ncn[nH]2)c([N+](=O)[O-])c1 | inconclusive [rising, single point]
19 | Brc1ccc(-n2cccc2/C=N/n2cnnc2)cc1 | inconclusive [rising, single point]
20 | Cc1cc(NC(=O)CCc2ccc(C)o2)no1 | inconclusive [rising, single point]
21 | S=c1[nH]nc(-c2cccnc2)n1/N=C/C=C/c1ccco1 | inconclusive [rising, single point]
22 | COc1ccccc1CNC(=O)CSc1nc(-c2ccccc2)cn1N | inconclusive [rising, single point]
23 | O=C(/C=C\c1ccco1)c1ccc(NC(=O)c2ccco2)cc1 | inconclusive [rising, partial curve]
24 | CCOc1ccc(NC(=NCc2ccc3c(c2)OCO3)SC2CC(=O)N(c3ccc(C(=O)O)cc3)C2=O)cc1 (stereo not given) | inactive
25 | COC(=O)CNC(=O)c1c(-c2c(Cl)cccc2Cl)noc1C | inconclusive [rising, single point]

Row | Compound | Potency
26 | CCOc1ccc(NS(=O)(=O)c2ccc3ncsc3c2)cc1 | inconclusive [rising, partial curve]
27 | Cc1ccc(-c2nc(-c3ccccn3)no2)cc1 | inactive
28 | Cc1ccc(C)c2[nH]c(=O)c(CCNS(=O)(=O)c3ccccc3)cc12 | inconclusive [rising, single point]
29 | COc1ccc2c(c1)c1ccc3c(c1n2C)C(=O)C=CC3=O | inconclusive [rising, full curve]
30 | CC(/C=C/c1ccco1)=N\NC(=O)c1cccnc1 | inconclusive [rising, single point]
31 | O=C(CCC(=O)N1CCN(S(=O)(=O)c2ccccc2)CC1)c1cccs1 | inconclusive [rising, single point]
32 | CCOc1ccc(N2C(=O)CC(Sc3ccccc3C(=O)O)C2=O)c([N+](=O)[O-])c1 (stereo not given) | inconclusive [rising, single point]
33 | COc1ccc(CNC(=O)c2c(C)nc3ccccn23)cc1 | inconclusive [rising, single point]
34 | Cc1ccc(CCC(=O)Nc2ncc(Cc3cc(Cl)ccc3Cl)s2)o1 | inconclusive [rising, partial curve]
35 | CN1C(=O)/C(=C/c2ccccc2OCc2ccc(F)cc2)N(C)C1=S | inactive
36 | c1ccc2c(c1)ccc1nnc(SCc3ccc4c(c3)OCCO4)n12 | active: 22.4 µM
37 | CCNS(=O)(=O)c1c(C)cc(N2CCCC2=O)cc1C | inconclusive [rising, partial curve]
38 | CN(C(=S)NC(=O)/C=C/c1ccc(F)cc1)C1CCCCC1 | inactive
39 | O=c1cc(N2CCCCC2)[nH]c(=O)n1C1CCCCC1 | inconclusive [rising, single point]
40 | O=S(=O)(c1cccs1)n1cccn1 | inconclusive [rising, single point]
41 | CCc1nnc(NC(=O)c2ccc3c(c2)C(=O)N(C(C)(C)C)C3=O)s1 | inactive
42 | O=C(OCc1ccc(Cl)c(Cl)c1)c1ccc[nH]1 | inactive
43 | COc1ccc(NC(=O)CCNC(=O)C2CCN(S(=O)(=O)c3ccc(F)cc3)CC2)cc1OC | active: 4.47 µM
44 | CCN(CC)C(=S)SCC(=O)c1ccc(F)cc1 | inactive
45 | COc1cc(C(=O)N2CCN(S(=O)(=O)c3ccc(F)cc3)CC2)cc(OC)c1OC | inconclusive [rising, single point]
46 | N#Cc1nc(Cc2ccccc2)oc1NCCCn1ccnc1 | inconclusive [rising, single point]
47 | CC(=O)N(c1nnc(-c2cccc(C)c2)s1)C1CCCC1 | inconclusive [rising, single point]
48 | O=C(c1nc2ccccn2c1CNCCCn1ncc2ccccc21)N1CCOCC1 | inconclusive [rising, single point]
49 | N#C/C(=C\c1cn(Cc2ccccc2)c2ccccc12)C(=O)NCc1ccco1 | inconclusive [rising, single point]
50 | Nc1c(C(=O)Nc2ccccc2F)sc2nc(-c3cccnc3)ccc12 | inactive

Row | Compound | Potency
51 | COc1ccc(CCNc2ccc(C(CC(N)=O)NC(=O)Cc3ccc(Br)cc3)cc2[N+](=O)[O-])cc1 (stereo not given) | inconclusive [rising, full curve]
52 | COc1cc2nc(SCc3ccc(Cl)cc3Cl)n(Cc3cccs3)c(=N)c2cc1OC | inactive
53 | CCOC(=O)Cc1nn2c(=O)cc(C)nc2s1 | inconclusive [rising, partial curve]
54 | CC(=O)C1=C(c2ccccc2)NC(=O)NC1c1ccc(O)c(O)c1 (stereo not given) | inconclusive [rising, full curve]
55 | CCCc1ncc(C(O)c2cccc(OC)c2)n1C (stereo not given) | inconclusive [rising, full curve, poor fit]
56 | COc1ccccc1/C=C1\SC(=S)N(CCC(=O)Nc2cccc(O)c2)C1=O | inconclusive [rising, full curve]
57 | COc1cc2c(cc1OC)C(C)N(C(=O)c1cc3n(n1)C(C(F)(F)F)CC(c1ccco1)N3)CC2 (stereo not given) | inconclusive [rising, single point]
58 | O=C1CCN(S(=O)(=O)c2ccccc2)CCN1CCOCc1ccc(Cl)cc1 | inconclusive [rising, partial curve]
59 | O=C(CN1CCN(c2ccccc2O)CC1)Nc1cccnc1Cl | inactive
60 | N#Cc1ccc(OCC(=O)N2CCN(S(=O)(=O)c3cccs3)CC2)cc1 | active: 17.8 µM
61 | Nc1nc(NCc2ccco2)nc(Nc2cccc(F)c2)c1[N+](=O)[O-] | inconclusive [rising, single point]
62 | COc1ccc(N2CCN(S(=O)(=O)c3ccc(C(=O)NC4CCCC4)cc3)CC2)cc1 | inconclusive [rising, single point]
63 | CC1S/C(=N/N=C/c2ccco2)N(Cc2ccccc2)C1=O (stereo not given) | inconclusive [rising, single point]
64 | O=C(CSCc1ccccc1Br)N/N=C/c1ccc(OCC(=O)N2CCCCC2)cc1 | inconclusive [rising, single point]
65 | COc1ccc2sc3c(=O)[nH]c4ccccc4c3c2c1 | inactive
66 | O=C(Nc1ccc2nc(-c3ccc(Br)o3)[nH]c2c1)c1cccs1 | inactive
67 | COc1ccc([C@H]2CC(=O)c3c(O)cc(O)cc3O2)cc1O | inconclusive [rising, single point]
68 | O=C1c2ccccc2C(Nc2ccc(F)c(Cl)c2)N1Cc1ccco1 (stereo not given) | inactive
69 | CNC(=O)NC(=O)COC(=O)c1n[nH]c2ccccc12 | inactive
70 | Cc1ccc(NC(=O)c2ccc(NCc3ccco3)c([N+](=O)[O-])c2)cc1Cl | inactive
71 | Cc1ccnc(SCC(=O)N2CCCc3ccccc32)n1 | inconclusive [rising, single point]
72 | CN(C)N=Nc1ccc2nc[nH]c2c1 | active: 10 µM
73 | Cc1csc(SCC(=O)N(C)c2c(N)n(Cc3ccccc3)c(=O)[nH]c2=O)n1 | inconclusive [rising, partial curve]
74 | Cc1[nH]c2ccccc2c1C(=O)CSc1ccccc1 | inconclusive [rising, single point]
75 | Cc1ccc(C)c(OCc2nnc(N)s2)c1 | inactive

Reference: PubChem BioAssay AID1631 (National Center for Advancing Translational Sciences (NCATS), 2009)
